Test results as given in PubChem BioAssay (NCATS).
Some of the results follow. These are further read-outs of the screen, such as a control signal, another cell line or another target. No call is given for them. Compounds called inactive in the main read-out are mostly missing here. Potencies come from curve fits of mixed quality, noted in brackets.

Experiment: qHTS Assay for Lipid Storage Modulators (AID 1519)
Conditions: Drosophila S3 cells, BODIPY lipid droplet/cell ratio, laser cytometry, cells loaded with oleic acid
Method in brief: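 Cells seeded at 5,000 per well were treated with compounds over a concentration series and loaded with oleic acid (400 uM, as added). Lipid droplet fluorescence (488 nm excitation, 500-530 nm channel) was read by laser-scanning cytometry and normalized to 20 uM Triacsin C.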

[1] = measured here: cell count channel max response
[2] = measured here: cell number channel AC50
[3] = measured here: lipid (BODIPY) channel AC50
[4] = measured here: lipid channel max response
Tags describe the fitted curve by direction and shape.

| SMILES | max response [1] | AC50 [2] | AC50 [3] | max response [4] |
| --- | --- | --- | --- | --- |
| COC(=O)Nc1ccc2[nH]cc(CCNC(C)=O)c2c1 | 52.1% | 5.62 µM [rising, partial curve, poor fit] | 15.8 µM [rising, partial curve, poor fit] | 66.2% |
| O=c1cc(-c2ccccc2)oc2cccc(O)c12 | 111% | 15.8 µM [rising, partial curve] | 15.8 µM [rising, partial curve] | 142% |
| COC(=O)C1=C(C)NC(C)=C([N+](=O)[O-])[C@@H]1c1ccccc1C(F)(F)F | 75.8% | 4.47 µM [rising, full curve] | 3.98 µM [rising, full curve] | 92.7% |
| Oc1ccc(/C=C\c2cc(O)cc(O)c2)cc1 | 61.9% | 11.2 µM [rising, full curve, poor fit] | 14.1 µM [rising, partial curve, poor fit] | 88.9% |
| CN1CCN(c2cc(-c3ccccc3Cl)ncn2)CC1 | 30.7% | 6.31 µM [rising, partial curve, poor fit] | 12.6 µM [rising, partial curve, poor fit] | 38.1% |
| O=c1cnc2cnc(OCc3ccccc3)nc2n1CCc1ccccc1 | 17.8% | 3.55 µM [rising, partial curve, poor fit] | 5.62 µM [rising, partial curve, poor fit] | 27.5% |
| N#Cc1cccc(-c2nccc(NCc3ccccc3)n2)c1 | 20.4% | 0.355 µM [rising, full curve, poor fit] | 2.51 µM [rising, partial curve] | 24.7% |
| NC[C@@H]1O[C@H](c2ccccc2)Cc2c1ccc(O)c2O | 60.7% | 6.31 µM [rising, full curve] | 7.08 µM [rising, full curve] | 83.8% |
| CN(C)c1ccc(-c2cncnc2Nc2ccc(F)cc2)cc1 | 30.9% | 1.26 µM [rising, full curve, poor fit] | 1 µM [rising, full curve] | 36.8% |
| O=S(=O)(c1ccccc1)N1CCC2(CCCN(c3cccc(-c4ccccc4)c3)C2)CC1 | 30.6% | 0.112 µM [rising, full curve] | 0.0282 µM [rising, full curve, poor fit] | 30.2% |
| COc1ccc(-c2nc3cnc(OC)nc3n(Cc3cccs3)c2=O)cc1 | 37.6% | 5.01 µM [rising, full curve, poor fit] | 6.31 µM [rising, full curve] | 52% |
| Cc1nc2cnc(N(C)C)nc2n(-c2ccccc2)c1=O | 36.9% | 6.31 µM [rising, partial curve, poor fit] | 3.98 µM [rising, partial curve, poor fit] | 45.2% |
| COC(=O)C1=C(C)NC(C)=C([N+](=O)[O-])[C@H]1c1ccccc1C(F)(F)F | 74.4% | 7.08 µM [rising, full curve] | 7.08 µM [rising, full curve] | 86.2% |
| CC(=O)NCCc1c(Cc2ccccc2)[nH]c2ccccc12 | 75.3% | 12.6 µM [rising, partial curve, poor fit] | 12.6 µM [rising, partial curve, poor fit] | 99.9% |
| COc1ccc(Oc2ncc3nc(C)c(=O)n(Cc4ccc(F)cc4)c3n2)cc1 | 18.3% | 0.447 µM [rising, full curve] | 0.447 µM [rising, full curve] | 24.3% |
| CCCCC#Cc1nc(NC)c2ncn([C@@H]3O[C@@H](CO)[C@H](O)[C@H]3O)c2n1 | 46.5% | 14.1 µM [rising, partial curve, poor fit] | 25.1 µM [rising, partial curve, poor fit] | 63.2% |
| Cn1c(=O)c(-c2cccc(Cl)c2)nc2cncnc21 | 8.16% | 1.41 µM [rising, full curve, poor fit] | 1.41 µM [rising, full curve] | 19.8% |
| COc1ccc(-n2c(=O)c(-c3cccs3)nc3cnc(N4CCN(C)CC4)nc32)cc1 | 20.7% | 3.55 µM [rising, full curve, poor fit] | 3.16 µM [rising, single point] | 17.9% |
